Assay results reported in patent US20070036750A1 (SCHERING, published 2007).

Assays:
[1] = biological target: CCR2 receptor of THP-1 human monocytic cells (human, UniProt P41597 1-374); test: cell-based or functional assay
[2] = biological target: T1, mouse CCR2 (full-length, Genbank Accession No. NM-009915) on membranes of Ba/F3-mCCR2 cells (mouse, UniProt P51683 1-373); test: competition with 30 pM radioiodinated human MCP1, SPA, Ba/F3-mCCR2 cell membranes
T1 construct: whole, on cells
T1 sequence (P51683 whole entry): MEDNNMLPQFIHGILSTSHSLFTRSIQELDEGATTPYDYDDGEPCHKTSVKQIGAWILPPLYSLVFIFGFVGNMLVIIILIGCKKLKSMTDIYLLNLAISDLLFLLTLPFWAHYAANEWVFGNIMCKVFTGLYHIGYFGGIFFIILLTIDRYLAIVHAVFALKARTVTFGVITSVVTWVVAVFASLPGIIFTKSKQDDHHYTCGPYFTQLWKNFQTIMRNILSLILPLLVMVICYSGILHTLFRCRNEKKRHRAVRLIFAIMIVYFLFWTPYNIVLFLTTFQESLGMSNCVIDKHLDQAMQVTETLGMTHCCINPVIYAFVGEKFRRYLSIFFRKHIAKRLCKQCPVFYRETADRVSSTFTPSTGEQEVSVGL

Sequence of UniProt P41597 (P41597 whole entry): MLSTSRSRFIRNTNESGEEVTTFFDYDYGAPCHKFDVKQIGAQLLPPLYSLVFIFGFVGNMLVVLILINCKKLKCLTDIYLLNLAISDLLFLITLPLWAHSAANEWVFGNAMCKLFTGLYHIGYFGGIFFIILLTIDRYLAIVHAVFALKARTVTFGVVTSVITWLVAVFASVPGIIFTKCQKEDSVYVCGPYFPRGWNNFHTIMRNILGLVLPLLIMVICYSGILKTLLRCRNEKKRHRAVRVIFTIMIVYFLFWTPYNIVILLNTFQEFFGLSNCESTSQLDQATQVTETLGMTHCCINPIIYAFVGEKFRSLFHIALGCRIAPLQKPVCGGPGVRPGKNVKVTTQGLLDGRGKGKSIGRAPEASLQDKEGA

EC50, THP-1 cell migration (chemotaxis) [1]: ~0.5 nM | IC50 [2]: 0.35 nM | Ki [2]: 0.138 nM
B1: hMCP1-mIg (NH2-human MCP1-Mouse Ig Heavy chain γ1 (hinge-CH2-CH3)-COOH) (Fc fusion)
chain: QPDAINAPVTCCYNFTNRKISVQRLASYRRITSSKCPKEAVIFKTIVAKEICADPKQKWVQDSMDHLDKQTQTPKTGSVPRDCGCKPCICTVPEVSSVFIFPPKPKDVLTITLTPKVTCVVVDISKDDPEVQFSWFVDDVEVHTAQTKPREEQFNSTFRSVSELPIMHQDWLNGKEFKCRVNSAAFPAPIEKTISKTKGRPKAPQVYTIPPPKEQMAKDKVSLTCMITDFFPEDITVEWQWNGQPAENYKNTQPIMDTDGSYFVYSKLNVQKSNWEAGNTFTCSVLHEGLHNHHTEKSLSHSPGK
notes: also called hMCP1-mlg; human MCP1-mIg
